Data as given in US20220267438A1 (Janssen / Centocor, published 2022).

T1: BCMW37 (recombinant human BCMA antigen) (human, UniProt Q02223 1-54, limits assumed)
T1 construct: also called BCMA BCMW37 chain; human BCMA (SPR antigen)
T1 sequence (looked up): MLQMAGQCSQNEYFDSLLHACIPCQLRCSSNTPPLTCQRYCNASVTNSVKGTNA

T2: human BCMA (B cell maturation antigen, TNFRSF17) on cells (human, UniProt Q02223 1-184)
T2 sequence (looked up): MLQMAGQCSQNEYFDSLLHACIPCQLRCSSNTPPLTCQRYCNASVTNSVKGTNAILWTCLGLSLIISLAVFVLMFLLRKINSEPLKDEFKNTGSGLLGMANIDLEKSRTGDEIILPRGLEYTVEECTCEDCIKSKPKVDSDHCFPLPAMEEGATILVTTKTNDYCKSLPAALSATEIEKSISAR

B1: BGCB491 (other)
heavy: QVQLQQSGPRLVRPSQTLSLTCAISGDSVFNNNAAWSWIRQSPSRGLEWLGRTYYRSKWLYDYAVSVKSRITVNPDTSRNQFTLQLNSVTPEDTALYYCARGYSSSFDYWGQGTLVTVSSASTKGPSVFPLAPSSKSTSGGTAALGCLVKDYFPEPVTVSWNSGALTSGVHTFPAVLQSSGLYSLSSVVTVPSSSLGTQTYICNVNHKPSNTKVDKKVEPKSCDKTHTCPPCPAPEAAGGPSVFLFPPKPKDTLMISRTPEVTCVVVSVSHEDPEVKFNWYVDGVEVHNAKTKPREEQYNSTYRVVSVLTVLHQDWLNGKEYKCKVSNKALPAPIEKTISKAKGQPREPQVYTLPPSREEMTKNQVSLSCAVKGFYPSDIAVEWESNGQPENNYKTTPPVLDSDGSFFLVSKLTVDKSRWQQGNVFSCSVMHEALHNRFTQKSLSLSPGKGGGGSGGGGSGGGGSGGGGS[letters of about 100 residues not shown]QFPHTFGQGTKLEIKGGSEGKSSGSGSESKSTGGSQVTLKESGPVLVKPTETLTLTCTVSGFSLTNIRMSVSWIRQPPGKALEWLAHIFSNDEKSYSTSLKSRLTISRDTSKSQVVLTLTNVDPVDTATYYCARMRLPYGMDVWGQGTTVTVSS
light: QSALTQPASVSGSPGQSITISCTGTSSNIGTYKFVSWYQQHPDKAPKVLLYEVSKRPSGVSSRFSGSKSGNTASLTISGLQAEDQADYHCVSYAGSGTLLFGGGTKLTVLGQPKAAPSVTLFPPSSEELQANKATLVCLISDFYPGAVTVAWKADSSPVKAGVETTTPSKQSNNKYAASSYLSLTPEQWKSHRSYSCQVTHEGSTVEKTVAPTECS
chain: EIVLTQSPGTLSLSPGERATLSCRASQSISSSFLTWYQQKPGQAPRLLIYGASSRATGIPDRFSGGGSGTDFTLTISRLEPEDFAVYYCQHYGSSPMYTFGQGTKLEIKGGSEGKSSGSGSESKSTGGS[letters of about 100 residues not shown]DEGYSSGHYYGMDVWGQGTTVTVSSEPKSSDKTHTCPPCPAPEAAGGPSVFLFPPKPKDTLMISRTPEVTCVVVSVSHEDPEVKFNWYVDGVEVHNAKTKPREEQYNSTYRVVSVLTVLHQDWLNGKEYKCKVSNKALPAPIEKTISKAKGQPREPQVYTLPPSREEMTKNQVSLWCLVKGFYPSDIAVEWESNGQPENNYKTTPPVLDSDGSFFLYSKLTVDKSRWQQGNVFSCSVMHEALHNHYTQKSLSLSPGK
notes: Trispecific IgG1 antibody (L234A, L235A, D265S); Heavy chain 1 = anti-CD3 (CD3B376) Fab heavy chain, hole and RF mutations, with C-terminal anti-GPRC5D scFv (GC5B680); Heavy chain 2 = anti-BCMA scFv (BCMB519) - Fc knob; also called JNJ-79635322; BCMA×GPRC5D×CD3 trispecific mAb
B2: BGCB463 (other)
heavy: QVQLQQSGPRLVRPSQTLSLTCAISGDSVFNNNAAWSWIRQSPSRGLEWLGRTYYRSKWLYDYAVSVKSRITVNPDTSRNQFTLQLNSVTPEDTALYYCARGYSSSFDYWGQGTLVTVSSASTKGPSVFPLAPSSKSTSGGTAALGCLVKDYFPEPVTVSWNSGALTSGVHTFPAVLQSSGLYSLSSVVTVPSSSLGTQTYICNVNHKPSNTKVDKKVEPKSCDKTHTCPPCPAPEAAGGPSVFLFPPKPKDTLMISRTPEVTCVVVSVSHEDPEVKFNWYVDGVEVHNAKTKPREEQYNSTYRVVSVLTVLHQDWLNGKEYKCKVSNKALPAPIEKTISKAKGQPREPQVYTLPPSREEMTKNQVSLSCAVKGFYPSDIAVEWESNGQPENNYKTTPPVLDSDGSFFLVSKLTVDKSRWQQGNVFSCSVMHEALHNRFTQKSLSLSPGK
light: B1 light
chain: [letters of about 100 residues not shown]QFPHTFGQGTKLEIKGGSEGKSSGSGSESKSTGGSQVTLKESGPVLVKPTETLTLTCTVSGFSLTNIRMSVSWIRQPPGKALEWLAHIFSNDEKSYSTSLKSRLTISRDTSKSQVVLTLTNVDPVDTATYYCARMRLPYGMDVWGQGTTVTVSSEPKSSDKTHTCPPCPAPEAAGGPSVFLFPPKPKDTLMISRTPEVTCVVVSVSHEDPEVKFNWYVDGVEVHNAKTKPREEQYNSTYRVVSVLTVLHQDWLNGKEYKCKVSNKALPAPIEKTISKAKGQPREPQVYTLPPSREEMTKNQVSLWCLVKGFYPSDIAVEWESNGQPENNYKTTPPVLDSDGSFFLYSKLTVDKSRWQQGNVFSCSVMHEALHNHYTQKSLSLSPGKGGSEGKSSGSGSESKSTGGSEIVLTQSPGTLSLSPGERATLSCRASQSISSSFLTWYQQKPGQAPRLLIYGASSRATGIPDRFSGGGSGTDFTLTISRLEPEDFAVYYCQHYGSSPMYTFGQGTKLEIKGGSEGKSSGSGSESKSTGGS[letters of about 100 residues not shown]DEGYSSGHYYGMDVWGQGTTVTVSS
notes: Trispecific IgG1 antibody (L234A, L235A, D265S); Heavy chain 1 = anti-CD3 (CD3B376) Fab heavy chain with hole and RF mutations; also called BGCB463.003; BGCB463.004

Assays:
[1] = target: T1, BCMW37 (recombinant human BCMA antigen); assay: SPR, BCMA binding after pH 8.5 stress
[2] = target: T3, human GPRC5D (G-protein coupled receptor family C group 5 member D) on cells (human, UniProt Q9NZD1 1-345); assay: cell-based or functional assay
T3 sequence (Q9NZD1 whole entry): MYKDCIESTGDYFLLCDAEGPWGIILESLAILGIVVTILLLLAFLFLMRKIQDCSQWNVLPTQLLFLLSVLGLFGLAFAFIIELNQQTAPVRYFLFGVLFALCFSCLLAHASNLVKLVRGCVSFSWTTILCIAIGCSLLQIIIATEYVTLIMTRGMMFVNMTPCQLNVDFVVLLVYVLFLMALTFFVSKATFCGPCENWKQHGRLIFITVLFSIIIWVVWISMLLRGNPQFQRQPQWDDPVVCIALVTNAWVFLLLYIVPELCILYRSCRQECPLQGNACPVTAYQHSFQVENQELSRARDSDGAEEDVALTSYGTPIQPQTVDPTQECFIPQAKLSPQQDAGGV

[3] = target: T2, human BCMA (B cell maturation antigen, …); assay: cell-based or functional assay
[4] = target: T4, human CD3 (CD3ε of the TCR/CD3 complex) on primary human pan T cells (human, UniProt P07766); assay: flow cytometry on human Pan-T cells (two donors), 1 hr 37 C, AF647 goat anti-human IgG
T4 construct: whole, on cells; On T cells CD3ε stands in the whole TCR/CD3 complex
T4 sequence (P07766 23-207, one chain of several): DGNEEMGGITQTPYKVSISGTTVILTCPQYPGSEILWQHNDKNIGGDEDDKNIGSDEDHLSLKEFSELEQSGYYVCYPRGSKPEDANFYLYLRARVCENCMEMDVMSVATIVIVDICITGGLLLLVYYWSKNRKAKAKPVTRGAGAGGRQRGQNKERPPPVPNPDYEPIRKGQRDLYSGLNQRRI
Protocol: BGCB463 and BGCB491 were tested in a 1 hr, 37° C. DRC Pan-T binding assay. Two human Pan-T cell donors were used, and test molecules had 2 uM starting concentrations with a 1:3 dilution and 11 point DRC. Secondary detecting via Alexa Fluor® 647 AffiniPure Goat Anti-Human IgG (H+L). FACS was performed using Intellicyte Ique Screener plus.

[5] = target: T1, BCMW37 (recombinant human BCMA antigen); assay: SPR
[6] = target: T3, human GPRC5D (G-protein coupled …); assay: cell-based or functional assay; remark: listed apart in the source
[7] = target: T2, human BCMA (B cell maturation antigen, …); assay: cell-based or functional assay; remark: listed apart in the source
[8] = target: T2, human BCMA (B cell maturation antigen, …); assay: cell-based or functional assay; remark: listed apart in the source
[9] = target: T2, human BCMA (B cell maturation antigen, …); assay: flow cytometry, H929 GPRC5D-KO cells, 1 hour 37C DRC
Protocol: (§1) BGCB463 and BGCB491 were tested against H929 WT, H929 BCMA-KO, H929 GPRC5D-KO, and H929 BCMA/GPRC5D double KO cells in a 1 hour, 37° C. DRC suite binding assay. Results shown in FIGS. 24A-24D, all with a null control (BGCB510).

[10] = target: T4, human CD3 (CD3ε of the TCR/CD3 complex) …; assay: flow cytometry, pan T cells; median of donors, estimated by bioinformatic extrapolation
Protocol: Flow cytometry was used to evaluate the CD3 arm (i.e., CD3B376) binding of BGCB491 to CD3⁺ pan T cells from 7 different healthy human. Cell-based EC₅₀ for CD3B376 could not be determined due to lack of saturation kinetics at 1 hour (FIG. 26). Bioinformatic extrapolation was performed (FIG. 27) using the CD3B376×Null control antibody (i.e., GCDB381) molecule, which saturates within 2 μM top concentration dose-response to constrain the top of the non-linear regression curve to generate a full curve that enables estimation of ECₓ values (Table 21).

[11] = target: T3, human GPRC5D (G-protein coupled …); assay: flow cytometry, H929 BCMA-KO cells, 1 hour 37C DRC
Protocol: as §1

[12] = target: T2, human BCMA (B cell maturation antigen, …); assay: flow cytometry on K562 cells expressing human BCMA, 1 hr 37 C, average of Runs 1 and 2 (EC50 AVE)
Protocol: FIGS. 9A-E. BGCB463 (circles) or negative control B23B251 (triangles) were all incubated with K562 cells expressing human GPRC5D (FIG. 9A), human BCMA (FIG. 9B), cynomolgus GPRC5D (FIG. 9C) or cynomolgus BCMA (FIG. 9D) for 1 hr at 37° C. at a starting concentration of 2 μM. After secondary detection with AF647-anti-human IgG, the MFI signal was analyzed to generate an EC₅₀ and EC₉₀ (FIG. 9E). Data are representative of two independent experiments.
The GPRC5D (i.e., GC5B680) and BCMA binding arms were assessed for cross-reactivity to cynomolgus monkey as part of the BGCB463 molecule, which uses the identical binding arms as BGCB491. Cross reactivity to cynomolgus monkeys was profiled for both target-binding scFv arms using FACS-based cell binding at 37° C. for 1 hour with K562 stably expressing human or cynomolgus monkey GPRC5D or BCMA. The cell-based EC₅₀ value for the GC5B680 scFv arm was approximately 30 nM against human GPRC5D-expressing cells and about 10-fold weaker (approximately 400 nM) on cynomolgus monkey GPRC5D-expressing cells.

Row | Binder | Kd [1] [nM] | T-cell activation EC50, 72 hrs, H929-BCMA KO [2] [nM] | T-cell activation EC50, 96 hrs, H929-BCMA KO [2] [nM] | T-cell activation EC50, 72 hrs, H929-GPRC5D KO [3] [nM] | T-cell activation EC50, 96 hrs, H929-GPRC5D KO [3] [nM] | EC50 (read off the curve) [4] [nM] | Kd [5] [nM] | Cytotoxicity EC50, 72 hrs, H929-BCMA KO [6] [nM] | Cytotoxicity EC50, 96 hrs, H929-BCMA KO [6] [nM] | Cytotoxicity EC50, 72 hrs, H929-GPRC5D KO [7] [nM] | Cytotoxicity EC50, 96 hrs, H929-GPRC5D KO [7] [nM] | Cytotoxicity EC50, Granta-519, 72 hours [8] [nM] | Cytotoxicity EC50, Ramos, 72 hours [8] [nM] | T-cell activation EC50, Granta-519, 72 hours [8] [nM] | T-cell activation EC50, Ramos, 72 hours [8] [nM] | EC50 [9] [nM] | EC50 [10] [nM] | EC50 [11] [nM] | EC50 [12] [nM]
1 | B1 | 0.16 | 3.11 | 3.46 | 0.52 | 0.48 | ~200 | 0.212 | 4.52 | 2.76 | 0.322 | 0.226 | 8.58 | 2.81 | 1.64 | 1.39 | 210 | 3370 | 3180 | –
2 | B2 | – | 0.517 | 0.445 | 3.14 | 3.51 | ~100 | 0.844 | 0.539 | 0.269 | 2.06 | 1.58 | 81 | – | 3.3 | 17.6 | 504 | – | 11700 | 147
